These are yes or no findings as the source states them, for the method shown. In cells and extracts the contact can be indirect. Some entries that bind do so weakly or less than the wild type. Each block holds one binder with its values, some of them ahead of it.
Key:
Assay in all cases: split reporter; split YFP BiFC in transiently transformed Arabidopsis protoplasts, 2 ug of each plasmid, incubated overnight; read by flow cytometry (at least three biological replicates, minimum 30,000 cells); each pair tested in both fusion conformations (SPN and SPC); positive where the normalized BiFC score lies above the threshold 0.01 in both conformations
[1] = molecular target: T1, bZIP11 (Arabidopsis thaliana), O65683; conditions: remark: other sources report otherwise
T1 chain: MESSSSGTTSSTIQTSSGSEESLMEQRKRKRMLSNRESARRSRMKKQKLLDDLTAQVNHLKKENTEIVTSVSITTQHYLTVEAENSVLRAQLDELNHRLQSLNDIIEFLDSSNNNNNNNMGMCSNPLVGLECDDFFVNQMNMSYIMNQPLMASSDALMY

[2] = molecular target: T2, bZIP2 (Arabidopsis thaliana), Q9SI15; conditions: remark: other sources report otherwise
T2 chain: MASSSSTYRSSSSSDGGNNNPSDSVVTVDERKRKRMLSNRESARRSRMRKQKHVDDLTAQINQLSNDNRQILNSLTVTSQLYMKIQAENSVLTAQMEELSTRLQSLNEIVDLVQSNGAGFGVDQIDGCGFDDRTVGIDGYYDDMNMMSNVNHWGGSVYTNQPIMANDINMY

[3] = molecular target: T3, bZIP1 (Arabidopsis thaliana), Q9FGX2; conditions: remark: other sources report otherwise
T3 chain: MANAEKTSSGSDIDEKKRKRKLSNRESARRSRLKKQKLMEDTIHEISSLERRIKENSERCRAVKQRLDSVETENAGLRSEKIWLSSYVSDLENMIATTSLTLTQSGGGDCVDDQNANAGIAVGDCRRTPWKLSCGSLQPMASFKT

[4] = molecular target: bZIP44 (Arabidopsis thaliana), C0Z2L5; conditions: remark: other sources report otherwise
[5] = molecular target: T4, bZIP53 (Arabidopsis thaliana), Q9LZP8; conditions: remark: other sources report otherwise
T4 chain: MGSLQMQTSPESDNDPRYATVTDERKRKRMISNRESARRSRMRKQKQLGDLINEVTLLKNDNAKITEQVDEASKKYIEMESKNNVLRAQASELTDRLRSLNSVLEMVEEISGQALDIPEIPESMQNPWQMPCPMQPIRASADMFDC

[6] = molecular target: T5, HyH (Arabidopsis thaliana) (UniProt Q8W191)
T5 sequence: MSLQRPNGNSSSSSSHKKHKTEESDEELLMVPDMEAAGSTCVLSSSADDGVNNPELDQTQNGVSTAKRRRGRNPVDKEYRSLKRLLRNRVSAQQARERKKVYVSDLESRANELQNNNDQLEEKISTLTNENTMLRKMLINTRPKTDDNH

[7] = molecular target: T6, GBF3 (Arabidopsis thaliana) (UniProt P42776)
T6 sequence: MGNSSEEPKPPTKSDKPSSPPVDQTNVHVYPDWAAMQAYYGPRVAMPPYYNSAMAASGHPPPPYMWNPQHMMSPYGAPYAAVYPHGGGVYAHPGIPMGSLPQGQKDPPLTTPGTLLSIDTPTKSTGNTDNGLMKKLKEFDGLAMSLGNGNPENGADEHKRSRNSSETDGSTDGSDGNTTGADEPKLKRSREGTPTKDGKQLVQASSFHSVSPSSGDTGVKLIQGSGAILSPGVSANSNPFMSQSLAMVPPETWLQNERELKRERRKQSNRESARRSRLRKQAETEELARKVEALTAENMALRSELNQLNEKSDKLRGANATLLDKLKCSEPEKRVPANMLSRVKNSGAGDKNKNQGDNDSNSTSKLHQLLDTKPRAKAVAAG

binding [1]: no binding
binding [2]: no binding
binding [3]: no binding
binding [4]: no binding
binding [5]: no binding
B1: bZIP9, Q9FUD3 1-277 (protein)
chain: MDNHTAKDIGMKRSASELALQEYLTTSPLDPCFDLMNRDYTCELRDSLLWSEGLFPAGPFRDAQSSICENLSADSPVSANKPEVRGGVRRTTSGSSHVNSDDEDAETEAGQSEMTNDPNDLKRIRRMNSNRESAKRSRRRKQEYLVDLETQVDSLKGDNSTLYKQLIDATQQFRSAGTNNRVLKSDVETLRVKVKLAEDLVARGSLTSSLNQLLQTHLSPPSHSISSLHYTGNTSPAITVHSDQSLFPGMTLSGQNSSPGLGNVSSEAVSCVSDIWP

binding [6]: binds
binding [7]: binds
B2: HyH (protein, UniProt Q8W191 1-149)
chain: T5 sequence

Reference: paper PMC4599898
